Experimental data from PubChem BioAssay AID1468 (National Center for Advancing Translational Sciences (NCATS), 2008).
In all, about 280,000 compounds went through this assay and about 1,100 (0.39%) were called active. The inconclusive results got no clear call from the source; some entries with a clear call stand among them for comparison. Calls follow the shape of the dose curve; as a rule, active = well fitted inhibition curve with a large enough effect; inconclusive = small, poorly fitted or top-dose-only effect, or effect the other way; inactive = flat fitted curve, though single readings scatter. No potency is given beside an inconclusive call; the fits are too rough.

target: Microtubule-associated protein tau (Homo sapiens) (UniProt P10636); test: qHTS for Inhibitors of Tau Fibril Formation, Fluorescence Polarization; details: K18 P301L tau heparin fibrillization, Alexa594 FP, 6 h; series mostly up to 57.7 µM; also: nearly all actives have a fitted effect of over 55% in size
Sequence of UniProt P10636 (P10636 whole entry, looked up): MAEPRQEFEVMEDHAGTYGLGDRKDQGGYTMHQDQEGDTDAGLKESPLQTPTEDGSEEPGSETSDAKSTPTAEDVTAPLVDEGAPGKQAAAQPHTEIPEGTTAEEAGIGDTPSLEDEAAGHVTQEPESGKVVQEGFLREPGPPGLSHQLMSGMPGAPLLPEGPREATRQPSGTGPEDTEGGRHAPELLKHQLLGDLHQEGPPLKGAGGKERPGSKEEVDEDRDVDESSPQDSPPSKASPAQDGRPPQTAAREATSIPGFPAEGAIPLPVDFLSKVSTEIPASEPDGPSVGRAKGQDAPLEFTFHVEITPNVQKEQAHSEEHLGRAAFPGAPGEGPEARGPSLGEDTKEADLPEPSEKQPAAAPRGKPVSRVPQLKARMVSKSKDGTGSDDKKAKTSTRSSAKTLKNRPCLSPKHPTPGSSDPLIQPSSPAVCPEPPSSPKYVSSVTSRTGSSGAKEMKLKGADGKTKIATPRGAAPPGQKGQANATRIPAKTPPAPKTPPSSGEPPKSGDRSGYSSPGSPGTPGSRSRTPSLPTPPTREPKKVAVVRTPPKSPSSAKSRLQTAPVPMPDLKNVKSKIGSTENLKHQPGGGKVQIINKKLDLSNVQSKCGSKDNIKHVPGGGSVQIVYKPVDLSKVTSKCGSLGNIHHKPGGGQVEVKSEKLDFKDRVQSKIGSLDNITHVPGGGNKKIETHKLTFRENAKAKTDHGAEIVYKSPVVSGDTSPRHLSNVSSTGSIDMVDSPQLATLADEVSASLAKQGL
Summary of the method: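 Steps: dispense K18 P301L tau (15 uM plus 0.24 uM Alexa 594 tracer, final) in pH 7 sodium acetate; add compound; add heparin (20 uM final); incubate 6 hr, 37 C; add ThT (30 uM final); after 1 hr ambient, read FP.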
Potency is read from the fitted curve at half-maximal effect; tags tell the direction and shape of the fitted curve.

Compound	Potency
Cc1cccc(Nc2nc(Nc3cccc(C)c3)nc(N3CCOCC3)n2)c1	inconclusive [inhibitor, partial curve]
Cc1cc2c(n1-c1ccc(C(=O)NCC(C)c3ccccc3)cc1)CCCC2 (stereo not drawn)	inconclusive [inhibitor, partial curve]
COc1ccc2[nH]cc(S(=O)(=O)c3ccc(C)cc3)c2c1	inconclusive [inhibitor, partial curve]
O=C(N/N=C/c1cnc(N2CCCCC2)s1)c1ccc(C(F)(F)F)cc1	inconclusive [activator, single point]
COC(=O)c1cccc(NC(=O)Cc2nc(-c3ccccc3)sc2-c2ccc(C)cc2)c1	inconclusive [inhibitor, partial curve]
CCOC(=O)c1sc(NC(=O)c2ccccc2)cc1C	inconclusive [inhibitor, single point]
O=C(CN1NS(=O)(=O)c2ccccc2C1=O)Nc1ccccc1OC(F)F	inconclusive [inhibitor, single point]
Cc1ccc(NC(=O)CSc2ncccc2C(=O)Oc2ccccc2Cl)cc1Cl	inconclusive [inhibitor, single point]
O=c1c2sc3ccccc3c2n(Cc2ccc(F)cc2)c(=O)n1Cc1ccccc1	inactive
CCc1cccc(CC)c1NC(=O)CCS(=O)(=O)c1ccc(Br)cc1	inactive
COC(=O)CN(C)C1CC(=O)N(c2ccc(Cl)cc2)C1=O (stereo not drawn)	inactive
CCc1ccc(NC(=O)Cn2c(=O)n(CCCC(=O)NCc3ccccc3OC)c(=O)c3ccccc32)cc1	inconclusive [inhibitor, partial curve, poor fit]
Cc1nn(-c2ccccc2)c(N)c1N=O	inactive
COc1ccccc1N1CCN(C2=Nc3cccc4cccc2c34)CC1	inactive
COc1cc(C)ccc1OCCSc1nc2ccc(NC(=O)c3ccc4c(c3)OCO4)cc2s1	inconclusive [inhibitor, full curve]
CCOc1ccc(-c2nonc2NC(=O)c2oc3ccc(Cl)cc3c2C)cc1	inconclusive [inhibitor, partial curve, poor fit]
Cc1cccc(NC(=O)C(=O)NCC(c2cccnc2)N2CCc3ccccc32)c1C (stereo not drawn)	inactive
COc1ccccc1NC(=O)NC1(C(=O)N2CCCCCC2)CCCCC1	inactive
O=C(CCCCCn1c(=S)[nH]c2ccc(N3CCOCC3)cc2c1=O)NCc1ccc(Cl)cc1	inactive
O=C(O)c1cc(O)c2c(c1)[C@H]([C@H]1c3cc(C(=O)O)cc(O)c3C(=O)c3c(O[C@@H]4OC(CO)C(O)C(O)C4O)cccc31)c1cccc(O[C@@H]3OC(CO)C(O)C(O)C3O)c1C2=O (stereo partly drawn)	inconclusive [inhibitor, single point]
CC1OC(OC2C(CO)OC(OC3C(CO)OC(O)C(O)C3O)C(O)C2O)C(O)C(O)C1NC1C=C(CO)C(O)C(O)C1O (stereo not drawn)	inactive
COc1cccc(NC(=O)c2oc3ccccc3c2NC(=O)COc2ccccc2C)c1	inconclusive [inhibitor, partial curve]

Compound	Potency
Cc1cc(O)ccc1Nc1nc2ccccc2nc1Nc1ccc(O)cc1C	inconclusive [inhibitor, single point]
Nc1cccc(C2=Nc3cccc4cccc(c34)N2)c1	inconclusive [inhibitor, single point]
CCC(=O)c1cc2c(cc1NC(=O)c1ccccc1)OCCO2	inconclusive [inhibitor, partial curve]
O=C1C[C@@H]2CCN3C(=O)CCC[C@@H]([C@H]23)[C@@H]1Cc1ccccc1	inactive
COc1cc(CNc2ccc3[nH]c(=O)[nH]c3c2)ccc1OCC(=O)NC(C)(C)C	inconclusive [inhibitor, partial curve]
CCOC(=O)c1csc(NC(=O)CSc2nnnn2-c2ccc(OC)cc2)n1	inconclusive [inhibitor, partial curve]
Cc1cc(C(=O)NCc2ccc(Cl)cc2)n(-c2ccccc2)n1	inactive
CC1(C)CC[C@]2(C(=O)O)CC[C@@]3(C)C(=CCC4[C@@]5(C)CCC(O)C(C)(C)C5CC[C@@]43C)C2C1 (stereo partly drawn)	inactive
Cc1nc2ccccn2c1-c1ccnc(=S)[nH]1	inconclusive [inhibitor, single point]
CC1(C)C2CCC1(C)C(OCCNCCOC(=O)Nc1ccccc1)C2 (stereo not drawn)	inconclusive [inhibitor, single point]
COc1ccc(NC(=S)Nc2cccnc2)c(OC)c1	inactive
CCC(NC(=O)Nc1ccc(O)cc1)(C(F)(F)F)C(F)(F)F	inconclusive [inhibitor, partial curve, poor fit]
CCOc1ccc2[nH]c3c(N4CCc5ccccc5C4)ncnc3c2c1	inconclusive [activator, partial curve, poor fit]
CCOC(=O)CC(NC(=O)c1cc2cc(Br)cc(OC)c2oc1=O)c1ccc(OC)cc1 (stereo not drawn)	inactive
Cn1nc(-c2ccccc2)c(-c2nc(-c3cccc(C(F)(F)F)c3)no2)c1Cl	inconclusive [inhibitor, partial curve]
CC(C)(C)NC(=O)C(c1ccc(I)cc1)N(CCN1CCOCC1)C(=O)CCCNC(=O)c1ccccc1 (stereo not drawn)	inactive
O=C(N/N=C/C=C/c1ccco1)c1cccnc1	inconclusive [inhibitor, single point]
COc1cccc(C(=O)NCC(=O)OCc2ccc(F)cc2Cl)c1	inconclusive [inhibitor, single point]
CCOc1ccc(N2C(=O)CS(=O)(=O)C23C(=O)N(Cc2cccc(Cl)c2)c2ccccc23)cc1 (stereo not drawn)	inconclusive [inhibitor, single point]
CC1N=C2c3ccccc3N=C(SCc3cc(=O)n4cc(Cl)ccc4n3)N2C1=O (stereo not drawn)	inconclusive [inhibitor, single point]
COC(=O)c1c(SC)nc2ccccc2c1OCc1ccccc1Cl	inconclusive [inhibitor, partial curve]
